# PubChem BioAssay AID686979 (National Center for Advancing Translational Sciences (NCATS), 2013)
# The whole screen tested about 420,000 compounds, of which about 50,000 (12%) were called active. The inconclusive results got no clear call from the source; some entries with a clear call stand among them for comparison. Calls follow the shape of the dose curve; as a rule, active = well fitted inhibition curve with a large enough effect; inconclusive = small, poorly fitted or top-dose-only effect; inactive = flat fitted curve, though single readings scatter. No potency is given beside an inconclusive call; the fits are too rough.
# Experiment: qHTS for Inhibitors of human tyrosyl-DNA phosphodiesterase 1 (TDP1): qHTS in cells in presence of CPT; also: nearly all actives have a fitted effect of over 55% in size
# Settings: chicken DT40 Tdp1-/-;hTDP1 cells + 20 nM CPT, ATP luminescence, 48 h; activity change, negative = growth inhibition: at 46.2 µM (top of the series) unless noted
# Procedure, shortened: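 Chicken DT40 Tdp1-/- cells stably complemented with human TDP1 were seeded at 400 cells/well in medium containing 20 nM camptothecin, exposed to pin-transferred compounds, and grown at 37 °C for at least 48 hr. Viability was read as ATP luminescence.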
# % is scaled to controls: 0 for no effect and ±100 for the full control effect; potency is read from the fitted curve at half-maximal effect; tags tell the direction and shape of the fitted curve.
SMILES,Potency,"activity change, negative = growth inhibition"
CC(=O)Nc1ccc(-c2ccnc3c2CC(C)(C(=O)Nc2cccc(OC(F)(F)F)c2)O3)cc1 (configuration not stated),"inconclusive [inhibitor, single point]",–
Cc1cc2nc(C(F)(F)F)[nH]c(=O)n2n1,inactive,–
CCc1ccccc1NC(=S)NNC(=O)c1ccccc1Cl,active: 6.51 µM,–
CCOc1cc(/C=C2\SC(=O)N(c3ccc(O)cc3)C2=O)ccc1O,"inconclusive [inhibitor, single point]",–
O=C(Nc1ccc(F)c(F)c1)c1cc(S(=O)(=O)N2CCc3ccccc32)ccc1F,active: 10.3 µM,–
Oc1cccc(-c2sc3ccccc3c2-c2ccc(OCCN3CCCCC3)cc2)c1,active: 18.4 µM,–
Cc1cccn2c(=O)c3cc(C(N)=S)c(=N)n(CCCN4CCOCC4)c3nc12,"inconclusive [inhibitor, single point]",–
Cc1ccc(NC(=O)CCC(=O)NNC(=O)Nc2cccc(Cl)c2)c(C)c1,inactive,–
Cc1ccc(CN(N=Nc2nonc2N)c2nonc2N)c(C)c1,"inconclusive [inhibitor, single point]",–
Cc1ccccc1NC(=O)c1ccccn1,"inconclusive [inhibitor, single point]",–
CCCCN(C)c1c(C)nc2ccc(C(=O)NCCc3c[nH]c4ccccc34)cn12,"inconclusive [inhibitor, single point]",–
CC(C)(C)NC(=O)Cn1c(SCC(N)=O)nc2ccccc21,active: 25.9 µM,–
Cn1c(NCc2ccccc2F)nc2cc(-c3cccc(Cl)c3)sc2c1=O,active: 14.6 µM,–
S=C(NCCc1ccccc1)Nc1ccccc1N1CCOCC1,"inconclusive [inhibitor, single point]",–
O=S(=O)(c1ccc(Cl)cc1)N1c2ccccc2Oc2nc3ccccc3nc21,active: 23.1 µM,–
COc1cccc(-n2ccn(CC(=O)Nc3ccccc3F)c(=O)c2=O)c1,"inconclusive [inhibitor, single point]",–
CCOC(=O)Nc1cc2c(c(N)n1)N=C(c1ccccc1)CN2,active: 0.206 µM,–
C#CCOCCOCCOCCNc1nc(N2CCN(C(=O)[C@H](CCCCN)n3cc(C(N)[C@H](C)CC)nn3)CC2)nc(N2CCN(C(=O)[C@H](CCC(=O)O)n3cc(C(N)[C@H](C)CC)nn3)CC2)n1 (some centres not stated),–,inconclusive: -26.1% [inhibitor]
Cc1ccc(NS(=O)(=O)c2c(C)[nH]c(C)c2C(=O)N2CCCCC2)c(Cl)c1,"inconclusive [inhibitor, single point]",–
S=C1SCN(Cc2cccnc2)CN1Cc1ccccc1,active: 2.91 µM,–
Cc1cc(C(=O)N2CCCC(C(=O)c3ccc(Cl)cc3C)C2)no1 (configuration not stated),active: 18.4 µM,–
COc1cccc(C(O)c2nc(-c3ccc(N(C)C)cc3)cs2)c1 (configuration not stated),active: 23.1 µM,–
Cc1ccc2c(c1)=C(c1sc(N(C)c3ccc(O)cc3)nc1O)C(=O)N=2,inactive,–
CCOc1ccc(C(=O)NCC(c2ccco2)N2CCc3ccccc3C2)cc1 (configuration not stated),"inconclusive [inhibitor, single point]",–

SMILES,Potency,"activity change, negative = growth inhibition"
Cc1ccc(-c2nc(C#N)c(NCc3cccc4c3OCO4)o2)cc1,inactive,–
O=C(Nc1ccc(Cl)c(Cl)c1)N1CC=C(c2ccccc2)CC1,active: 23.1 µM,–
COc1ccc(N2CCN(C(=O)CNC(=O)Cn3c(C)cc4ccccc4c3=O)CC2)cc1,"inconclusive [inhibitor, full curve]",–
CCCOc1ccc(-c2c(C(=O)N/N=C/C3CCCCC3)nnn2-c2nonc2N)cc1,active: 25.9 µM,–
CN(C(=O)CSC1=NC2C(N=N1)c1cc(Br)ccc1N2C)C1CCCCC1 (configuration not stated),"inconclusive [inhibitor, single point]",–
O=C(C1CCCO1)N1CCN(C(=O)C23CC4CC(CC(C4)C2)C3)CC1 (configuration not stated),inactive,–
O=C(NCC(c1ccco1)N1CCCC1)c1ccc(S(=O)(=O)Nc2ccccc2F)cc1 (configuration not stated),inactive,–
CCc1nc2ccc(C(=O)NCCCN3CCCC3=O)cn2c1N(CC)CCOC,inactive,–
O=C(Nc1ccc(Cl)c([N+](=O)[O-])c1)c1ccc(NCCCN2CCOCC2)c([N+](=O)[O-])c1,active: 2.31 µM,–
CC(O)(c1ccc(F)c(F)c1)c1nc(-c2cccc(C#N)c2)cs1 (configuration not stated),"inconclusive [inhibitor, single point]",–
C/C(=N\OCC(=O)N/N=C/c1ccccc1O)c1cccs1,active: 4.11 µM,–
Cc1onc(-c2ccccc2)c1C(=O)Nc1ccccc1N1CCOCC1,"inconclusive [inhibitor, partial curve]",–
COc1ccc(CCNC(=S)Nc2ccccc2C)cc1,"inconclusive [inhibitor, single point]",–
O=C1NC(c2cccnc2)C(C(=O)c2cccs2)C(O)(C(F)(F)F)N1 (configuration not stated),–,inconclusive: -6.71% [inhibitor]
CCN(CC)c1ccc(NC(=O)c2ccccc2F)cc1,"inconclusive [inhibitor, single point]",–
CCN(CC)c1ccc(/C=N/N2CCN(Cc3ccccc3)CC2)c(O)c1,"inconclusive [inhibitor, single point]",–
COc1ccc([C@H]2C(C#N)=C([S-])N[C@](C)(O)[C@@H]2[n+]2ccccc2)cc1,inactive,–
O=C1CNC(=O)/C1=C\N1CCN(C(c2ccccc2)c2ccccc2)CC1,"inconclusive [inhibitor, partial curve]",–
CC(C)=NN1C(c2nonc2N)=NOC1(C)C,"inconclusive [inhibitor, partial curve]",–
CCC(C)NC(=O)C1c2ccccc2C(=O)N(c2ccc(OC)cc2)C1c1ccc(OC)cc1 (configuration not stated),"inconclusive [inhibitor, single point]",–
CC1(C(=O)NCc2ccco2)Cc2c(-c3ccc(C(N)=O)cc3)ccnc2O1 (configuration not stated),active: 4.11 µM,–
COCCN(C)Cc1nc(C(c2ccccc2)c2ccccc2)no1,inactive,–
N#CC(C(=O)NC1CC1)c1nc2ccccc2nc1N1CCN(C/C=C/c2ccccc2)CC1 (configuration not stated),"inconclusive [inhibitor, single point]",–
